Repeats are few or missing, and single values can be far off.
What was measured:
[1] = tested on: CHO-K1; experiment: micronucleus frequency (% of nucleated events); higher = more micronuclei (genotoxic)
[2] = tested on: CHO-K1; experiment: hypodiploid nuclei frequency (% of nucleated events); higher = more hypodiploid events (aneugenic)
Experimental: (§1)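 Flow-cytometric in vitro micronucleus assay (Litron MicroFlow) in CHO-K1 cells in 96-well plates, 19 concentrations (4.5-200 µM, n=1 per concentration). Without S9, cells were exposed for 24 h and sampled at 48 h. With Aroclor 1254-induced rat liver S9, cells were exposed for 3-4 h and sampled at 27-28 h. Read-outs are %MN and %hypodiploid nuclei relative to nucleated events, and relative survival as the nuclei-to-bead ratio versus the 1% DMSO vehicle control (x100).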

[3] = tested on: CHO-K1; experiment: relative survival (nuclei to bead ratio vs DMSO control) (% of vehicle control); higher = more surviving cells
Experimental: as §1
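Wherever hypodiploid nuclei frequency (% of nucleated events) is given: hypodiploid nuclei gated on a flow cytometer with 488 nm excitation after SYTOX Green staining, cultures at 37 °C, positive controls vinblastine without S9 and cyclophosphamide with S9.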
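Wherever micronucleus frequency (% of nucleated events) is given: cells lysed with nuclei stained by SYTOX Green, then micronucleus-gated events counted against nucleated events by flow cytometry with 488 nm excitation.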
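Wherever relative survival (nuclei to bead ratio vs DMSO control) is given: Lysed-cell nuclei stained with SYTOX Green and counted against counting beads by flow cytometry at 488 nm excitation, with vinblastine (no S9) and cyclophosphamide (plus S9) as positive controls.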

NC(=Nc1ccccc1)Nc1ccccc1 [1,3-Diphenylguanidine]
Conditions	hypodiploid nuclei frequency, [2] [%]	micronucleus frequency, [1] [%]	relative survival, [3]
concentration: 4.5 (µM), S9 metabolic activation: with S9, exposure time: 3-4 hours	0.32	1.86	131
concentration: 4.5 (µM), S9 metabolic activation: without S9, exposure time: 24 hours	0.4	1.84	135
concentration: 5.63 (µM), S9 metabolic activation: with S9, exposure time: 3-4 hours	0.24	1.08	122
concentration: 5.63 (µM), S9 metabolic activation: without S9, exposure time: 24 hours	0.46	1.54	137
concentration: 7.04 (µM), S9 metabolic activation: with S9, exposure time: 3-4 hours	0.1	1.3	112
concentration: 7.04 (µM), S9 metabolic activation: without S9, exposure time: 24 hours	0.66	1.22	166
concentration: 8.8 (µM), S9 metabolic activation: with S9, exposure time: 3-4 hours	0.2	0.92	100
concentration: 8.8 (µM), S9 metabolic activation: without S9, exposure time: 24 hours	0.52	1.18	135
concentration: 11 (µM), S9 metabolic activation: with S9, exposure time: 3-4 hours	0.38	1.04	103
concentration: 11 (µM), S9 metabolic activation: without S9, exposure time: 24 hours	0.66	1.34	121
concentration: 13.7 (µM), S9 metabolic activation: with S9, exposure time: 3-4 hours	0.1	1.16	104
concentration: 13.7 (µM), S9 metabolic activation: without S9, exposure time: 24 hours	0.56	1.54	139
concentration: 17.2 (µM), S9 metabolic activation: with S9, exposure time: 3-4 hours	0.22	1.12	122
concentration: 17.2 (µM), S9 metabolic activation: without S9, exposure time: 24 hours	0.62	1.3	123
concentration: 21.5 (µM), S9 metabolic activation: with S9, exposure time: 3-4 hours	0.1	1.44	124
concentration: 21.5 (µM), S9 metabolic activation: without S9, exposure time: 24 hours	0.64	1.58	173
concentration: 26.8 (µM), S9 metabolic activation: with S9, exposure time: 3-4 hours	0.24	1.12	161
concentration: 26.8 (µM), S9 metabolic activation: without S9, exposure time: 24 hours	0.66	1.46	108
concentration: 33.6 (µM), S9 metabolic activation: with S9, exposure time: 3-4 hours	0.22	1.06	136
concentration: 33.6 (µM), S9 metabolic activation: without S9, exposure time: 24 hours	0.74	1.4	135
concentration: 41.9 (µM), S9 metabolic activation: with S9, exposure time: 3-4 hours	0.24	1.26	103
concentration: 41.9 (µM), S9 metabolic activation: without S9, exposure time: 24 hours	0.86	1.72	125
concentration: 52.4 (µM), S9 metabolic activation: with S9, exposure time: 3-4 hours	0.32	1.38	119
concentration: 52.4 (µM), S9 metabolic activation: without S9, exposure time: 24 hours	0.64	1.6	137
concentration: 65.5 (µM), S9 metabolic activation: with S9, exposure time: 3-4 hours	0.2	1	133
concentration: 65.5 (µM), S9 metabolic activation: without S9, exposure time: 24 hours	0.82	1.88	135
concentration: 81.9 (µM), S9 metabolic activation: with S9, exposure time: 3-4 hours	0.24	1.1	120
concentration: 81.9 (µM), S9 metabolic activation: without S9, exposure time: 24 hours	0.82	1.96	156
concentration: 102 (µM), S9 metabolic activation: with S9, exposure time: 3-4 hours	0.22	0.88	119
concentration: 102 (µM), S9 metabolic activation: without S9, exposure time: 24 hours	1.04	2	133
concentration: 128 (µM), S9 metabolic activation: with S9, exposure time: 3-4 hours	0.18	1.34	110
concentration: 128 (µM), S9 metabolic activation: without S9, exposure time: 24 hours	0.98	2.6	110
concentration: 160 (µM), S9 metabolic activation: with S9, exposure time: 3-4 hours	0.24	1.1	110
concentration: 160 (µM), S9 metabolic activation: without S9, exposure time: 24 hours	1.28	3.04	112
concentration: 200 (µM), S9 metabolic activation: with S9, exposure time: 3-4 hours	0.28	1.22	132
concentration: 200 (µM), S9 metabolic activation: without S9, exposure time: 24 hours	1.34	3.06	91.9

From the supplement of paper PMC9151546
